# Data taken from the supplement of paper PMC3334620.
# Whole data set: some 33,000 sequences, median “E-score (-0.5 to 0.5)” near -0.01, cut for the highest 2% near 0.26. Some of the results follow.
# Target: Ste12 (UniProt P13574)
# Assay: PBM E-score (8-mer binding enrichment) (E-score (-0.5 to 0.5)); higher = stronger / more preferred TF binding; most listed sequences are background and not binding sites
# Settings: protein concentration: 200 nM; construct: GST-DNA-binding domain
# Method in brief: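 For each ungapped eight-base word taken together with its reverse complement, the Universal PBM Analysis Suite assigned an E-score. Binding data came from GST-tagged yeast transcription factors, applied at about 100-200 nM, on universal all-10-mer Agilent arrays made double-stranded by primer extension. Fluorescent anti-GST marked bound protein, and scans were normalised with masliner.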
row,Sequence,PBM E-score
1,ATGAGTGC,0.00589
2,ATGCAAAT,-0.0256
3,ATTCATAC,0.219
4,AACCATCA,-0.0543
5,AGAGAAGC,0.00128
6,GGCTGGCA,-0.293
7,GCTCTACA,0.0189
8,AGTACTAC,0.0281
9,CAAGGTAA,0.056
10,ATGGATTG,0.0445
11,CTCTTATC,0.0526
12,CTTATCAA,0.109
13,AAAATCAG,0.118
14,AATAAAGA,0.211
15,AATGCATA,-0.0821
16,ACCAGAGG,-0.0796
17,ACAATAGG,0.0381
18,ATAGGCAC,-0.245
19,AGTTAGCA,-0.107
20,ACTATACG,-0.113
21,AGCGGTAA,0.108
22,ATAGTCTG,-0.101
23,CGTATCTC,0.053
24,AGCCCGAT,0.14
25,TGTCCCAA,-0.0924

row,Sequence,PBM E-score
1,ATCGTGGG,0.128
2,TCGTCTAA,-0.0513
3,CCGGGATC,0.148
4,GACTCCTC,-0.101
5,AGAGGCCA,-0.072
6,AGTGCGAG,-0.0922
7,ACTTCAAG,0.066
8,ACTGTCTA,-0.165
9,ACGTATGG,-0.00236
10,GAGCGAGC,-0.00859
11,GCTTCGCA,-0.235
12,AACAGGGG,0.0794
13,AGGGCAAG,0.172
14,ATACGATG,-0.13
15,GCAAAGAA,0.225
16,AAAAATTT,0.138
17,ACGAAAAT,0.142
18,ATGAACAC,0.136
19,GTGAAGGA,-0.00656
20,CAAACCGA,0.0295
21,CACAGCCC,-0.205
22,ACATAGTC,-0.114
23,GAGTCGAC,0.0372
24,AGAAAGTC,0.0154
25,ATAAATCG,0.0695

row,Sequence,PBM E-score
1,AGGCTTGG,-0.0545
2,AACCCGCA,0.139
3,CCATGAGC,-0.323
4,CTCCGAAC,-0.216
5,ATGTGTTG,0.132
6,GGTCAGAA,0.0496
7,CCGGAAAC,0.0586
8,GGAATTAA,0.229
9,CATACAAG,-0.113
10,ACCCTGCT,-0.216
11,CGTCGACA,0.0468
12,GACAAGCC,-0.108
13,ACTCTCAG,0.0382
14,CTCCCAAC,0.0957
15,ACTCAGCA,-0.191
16,CTCGTCGC,-0.0358
17,AGGTCAAA,0.0538
18,GACTGGGA,0.0394
19,ATAGCGAG,0.0492
20,GACAGGGC,-0.169
21,AGAACACT,0.0209
22,GCGTCATA,0.143
23,CTACCAAA,0.0171
24,TCTCCAGA,-0.249
25,AAGAGTGA,-0.0133

row,Sequence,PBM E-score
1,CGAGTGAG,-0.188
2,GTCTTCGA,-0.221
3,ACCTGTGC,-0.156
4,GGTTGCTA,-0.112
5,ATGGCCAT,-0.189
6,AATCGCCT,0.114
7,ATACCGTA,0.0561
8,GGGTCTAA,0.122
9,GTCGGGTA,0.0975
10,CTTAGATA,0.133
11,GCCCACCC,0.344
12,CTGGGGTA,-0.145
13,CTGTTCGC,0.13
14,GTTACTAA,0.0719
15,CCGTACAG,-0.21
16,AAAATCGC,0.151
17,CGGGGAAC,-0.0249
18,GGCCTACA,-0.137
19,GATGGGGC,0.0325
20,ACCCGCGC,0.25
21,CGACCTAC,-0.151
22,CCAAACTC,0.184
23,AACGCTCG,0.032
24,CTCTCCCA,-0.0499
25,GTTGGAGA,0.19

row,Sequence,PBM E-score
1,CCGGATAA,0.0216
2,GGGTTCAA,-0.0051
3,ATTTTTCG,0.294
4,ATTTACTA,0.169
5,GTATATGA,0.0568
6,ACGGCAGG,-0.162
7,ACCAAGTA,0.145
8,TCCTCTCA,-0.0603
9,GATGGAAA,0.0433
10,ACGGGAAT,-0.119
11,CTATTGTC,-0.0655
12,GTTGTGAA,0.107
13,CTTAGGAA,0.122
14,GAGACGAC,-0.0981
15,CAAATTAC,0.0769
16,CCATACAA,0.0185
17,AAAAATCA,0.254
18,GTTCAGGA,-0.102
19,CCGAAAAA,0.269
20,TGTTCAAA,0.17
21,AGGTGTCA,0.104
22,GGGTGCGA,-0.00757
23,GTCTGGCA,-0.159
24,AACTTAGG,0.151
25,GACGTTAA,0.0126

row,Sequence,PBM E-score
1,TCAACTAA,-0.0445
2,ACGATAGG,-0.113
3,AGAGTAAC,-0.0409
4,ATCATAGG,-0.0846
5,AACAATCA,0.139
6,ATGAATTC,0.0982
7,AAACCCAA,0.349
8,CAATCACA,-0.0522
9,TGTGTAAA,0.166
10,ACCGTAGT,-0.0915
11,GCGTTAGC,-0.0623
12,ACCCGAAG,0.017
13,CACTTTCC,-0.0588
14,AGATTGGC,-0.109
15,AAGGCCGC,-0.0881
16,CCCGCTCC,-0.125
17,CAGGCACG,-0.0922
18,AAGTTGCG,0.148
19,AATGTTGC,0.0457
20,ATAGCAAT,0.0679
21,CGGGGTTA,0.203
22,GGTTGCGA,-0.00474
23,GGTAGCCA,-0.0713
24,CCCAGGGG,-0.23
25,ACAAGACT,0.0348

row,Sequence,PBM E-score
1,TATCGAGA,0.0306
2,AGAGCAGG,-0.0406
3,GAAAGACC,-0.00946
4,CGACTCTC,-0.103
5,ACGGTTCG,-0.0901
6,GCTAGAGA,-0.0888
7,AAAATAGG,0.171
8,CCGGCGCC,0.1
9,GAGATGAA,0.156
10,CTTTCATA,0.205
11,AAGCCTCC,-0.186
12,GTGACAAC,0.114
13,TAGGGAAA,0.133
14,CTGTGTAA,0.0461
15,AATCATAT,0.0297
16,CAGGATAC,-0.0863
17,ATGACCAG,0.0602
18,AGATGAAC,0.098
19,ACGTTCGA,-0.0755
20,AAAATGTA,0.183
21,CTATATCA,0.145
22,GGTGGACA,-0.197
23,AAATTCGG,0.091
24,ATAGAGTG,-0.0838
25,CTTGATTA,0.0433

row,Sequence,PBM E-score
1,GCGGATAA,0.23
2,AACTCAGT,-0.0577
3,GACCAAAA,0.18
4,GAACCATC,-0.0828
5,CACGCGGA,0.047
6,CCCTGACG,0.0297
7,CCCGGGGC,0.0221
8,ATGTACAC,0.0121
9,GGGCTCCA,-0.182
10,CATATTCC,-0.0541
11,CAGGTACA,-0.101
12,ATCTATAA,0.0201
13,AAAGCATA,0.0128
14,GCTCTTAA,0.0316
15,GGGGTAGA,0.0991
16,CCTGTGAA,0.182
17,GATAGTCA,-0.00874
18,GTATGGAA,0.0049
19,AATAGCTA,0.0182
20,CCACCCAG,0.164
21,CCGCCAAA,0.131
22,AACTACAC,-0.0557
23,TACACAAA,0.209
24,ATTCGCCA,0.0486
25,CTGACCAC,-0.00207

row,Sequence,PBM E-score
1,GCCAAGAC,-0.0751
2,CTTCGAGC,-0.0108
3,AAAATCTC,0.119
4,GAGCTTAC,-0.249
5,GGAGGCCC,-0.275
6,CGCCGGGC,0.0988
7,AAGTCGCT,-0.0711
8,ATGCTAAT,-0.00204
9,CATTAAAA,0.27
10,CGTGATGA,-0.00704
11,GCTAACCA,-0.102
12,AGCCCTAG,-0.117
13,CGGCTCAA,-0.0208
14,TCACCTCA,0.0737
15,TATTGTAA,0.156
16,GGATTCAC,0.0683
17,ATTGGCTG,-0.0316
18,AGGCCTCC,-0.15
19,GCATGTTA,0.0274
